# Measured values published in article PMC12136788.
# The other results are listed elsewhere or left out.
# B1: chr16:74449243:74449344:-|3pUTR|ENSG00000090863|msi1|FALSE|bound_elsewhere (ssRNA)
# RNA: GGGAGUUCUACAGUCCGACGAUCUCUCCUAUCCUCCCAUCCUCCAGGCCUGUGGUGUGACUUCUGCCCCGAAGUUCCUACUAUAGUGAGUCAUCUGGGGAGAGGCCACUGAAAAGAGGCCUUCCCUUCCCAUUUCCUCCCCUGCAACAGAGGAUUGAGCAUCA
# B2: chr12:293013:293114:-|CDS|ENSG00000073614|unk|total|mutant (ssRNA)
# RNA: GGGAGUUCUACAGUCCGACGAUCACUAAAAGUGAAAGGAAAGGACUCUUCAGAGAAGAAACGGAAACGGAAGCCCGAAAAGGCCGAGCAACUUUUUGGAGAAGGAAAACAGAAGUCCAAGGAGUUAAAGAAAAUGGACAAACCCAACAGAGGAUUGAGCAUCA
# B3: chr20:56370492:56370607:-|CDS|ENSG00000087586|unk|FALSE|unique (ssRNA)
# RNA: GGGAGUUCUACAGUCCGACGAUCUCGGAUGCAUGAUGAGAAGGUGGAUCUCUGGAGCCUUGGAGUUCUUUGCUAUGAAUUUUUAGUUGGGAAGCCUCCUUUUGAGGCAAACACAUACCAAGAGACCUACAAAAGAAUAUCACGCAACAGAGGAUUGAGCAUCA
# B4: chr16:21655520:21655610:+|3pUTR|ENSG00000197006|msi1_unk|FALSE|overlapping (ssRNA)
# RNA: GGGAGUUCUACAGUCCGACGAUCUCUGUGUUCACAAUUACGUGAAGGGAGGACCCUUGGGGACCGCCAUUCUAAAUAUCAUGUAGGAAUUUAAAAAGCCAAAAUACUAAUUAUUUCUUUGUAGUGUGUAAAGGAAUGUUUUUACAACAGAGGAUUGAGCAUCA
# B5: chr14:100882551:100882663:-|CDS|ENSG00000254656|unk|FALSE|unique (ssRNA)
# RNA: GGGAGUUCUACAGUCCGACGAUCGCUCUCCCCAGACCCUAUCAUACCUCAGAACGUGAUUCACUUCAUCCUAAAGGACAUGCUAGGGUUCUUUGUGCUUUCUUAUGGCCAGGAAGUCCUGAUCUACUCAAUGAGUCAGGAGGACAACAGAGGAUUGAGCAUCA
# B6: chr1:26281289:26281390:+|3pUTR|ENSG00000142669|msi1_unk|total|mutant (ssRNA)
# RNA: GGGAGUUCUACAGUCCGACGAUCUCCCUCCUCUCUAAAUGCCGUCCCCUCUCCUCCAUCUAAAGGCAACAUUCCUUACCCAUCCGUCUCAGAAAUUGUCUUAAGCAACAGCCCCAAAUGCUGGCUGCCCCCAGCCAAGCAUUGCAACAGAGGAUUGAGCAUCA
# B7: chr12:76028832:76028933:-|3pUTR|ENSG00000139289|msi1|total|mutant (ssRNA)
# RNA: GGGAGUUCUACAGUCCGACGAUCAAAGGAAAAGACUGGAUAAACACAGGAUUUUCAGUAAGAAAACAACCCCAGUCUUGUCUCCGAAGCCACUUGUUGAGGAGUCUGUUGGGGGAAAAAAGAGGAUAUGCUUUUAAAGGCCGACAACAGAGGAUUGAGCAUCA
# B8: chr11:85958428:85958534:-|3pUTR|ENSG00000073921|unk|total|mutant (ssRNA)
# RNA: GGGAGUUCUACAGUCCGACGAUCAGAAACAAUAACUGAAAUUAACUUUUCUUUUUUUAAAAAAAAUUAUAUUCAGUUUGCAGCCGACAUUCCUUAAGUAUUUGUAUUUAUUUAUGAUUAUCAAUUUUACAUAACAUUAAUAUUCAACAGAGGAUUGAGCAUCA
# B9: chr6:132296306:132296407:-|3pUTR|ENSG00000079931|msi1|total|mutant (ssRNA)
# RNA: GGGAGUUCUACAGUCCGACGAUCAUGGGAAACACCGAAAUGGUAUGUAUUAAUAACUGAUCACCGGCUGAGGAGAAAAAAUGCCGCUGGCUGCAAACCCAGUGCUGUGAGGUGACUUAUAUGAGGUUCCAGAUCAAAGACAGGCAACAGAGGAUUGAGCAUCA
# B10: chr12:102417490:102417817:-|three_prime_utr|ENSG00000017427|control|control|control (ssRNA)
# RNA: GGGAGUUCUACAGUCCGACGAUCACAGAGGCAAGGAUGAUGAGAGAGGAGCAGACAGCAAGAAUGAAAAGCAGAAAAUACAAUAGAGGAAAUGAAGAAAAGUAGGCCUGCUGGAGCUAGAUGAUGAUGUGAUGGAAAUAGAAGCAACAGAGGAUUGAGCAUCA
# B11: chr17:18327447:18327548:+|3pUTR|ENSG00000176994|msi1|total|mutant (ssRNA)
# RNA: GGGAGUUCUACAGUCCGACGAUCGUCAACUCACAGAUUCUGCAGCAGCUGCUCCACCCACAAUAAAGCAAACGCCGACAGGCCCGACCCCAGAUUGCAGGGGCUGCCACCUACAAGGUGGGACCACAGGCUGCCUCACCGGGACAACAGAGGAUUGAGCAUCA
# B12: chr16:74503563:74503676:-|CDS|ENSG00000090863|unk|FALSE|bound_elsewhere (ssRNA)
# RNA: GGGAGUUCUACAGUCCGACGAUCGGCAACAUCACUGAGUAUCAGUGUCACCAGUACAUUACCAAGAUGACGGCCAUCAUUUUUAGUGAUUACCGUUUAAUCUGUGGCUUCAUGGAUGACUGCAAAAAUGACAUCAACAUUCUGCAACAGAGGAUUGAGCAUCA
# B13: chr1:34868604:34869089:-|CDS|ENSG00000116544|control|control|control (ssRNA)
# RNA: GGGAGUUCUACAGUCCGACGAUCGCCCCCACCCCCGGCCCUGGGGCCGGCCGCCGUGACUCCUGGAUAGAGCGCGGUUCACGUAGCCUCCCCGACUCAGGCCGCGCAUCCCCCUGCCCACGCGACGGCGAGUGGUUCAUCAAGCAACAGAGGAUUGAGCAUCA
# B14: chr1:225495143:225495244:-|3pUTR|ENSG00000154380|msi1|total|mutant (ssRNA)
# RNA: GGGAGUUCUACAGUCCGACGAUCACAUUAUUAUGAUGGUUUUUGUGCUCUUGUACGUUGGAUGUCUUAAGCUGAGUACAGUUCCGGGGAUCCUUUCUAAUGACAGGAAGGCACUGCUUUCCUCAACACUGUGAUCUGACCUGUCAACAGAGGAUUGAGCAUCA
# B15: chr20:11926050:11926151:+|3pUTR|ENSG00000132640|msi1|FALSE|unique (ssRNA)
# RNA: GGGAGUUCUACAGUCCGACGAUCAUGAAAUGGAAUGAAGGCUAAUAUGCUUGCUUUAUUUACUUUUGUAAUCUUGGAUUUUGUAGCUUUUAAAACUAGAAACCAUUGUUCUAACAAAGCAGGCAACUUUAUUCUAUAAACACACAACAGAGGAUUGAGCAUCA
# B16: chr12:49763637:49763739:+|3pUTR|ENSG00000139644|msi1_unk|total|mutant (ssRNA)
# RNA: GGGAGUUCUACAGUCCGACGAUCAUGUGUAUCAAGGUACAGCAUCGCCGGGUUCCCCUAAACUUGCCCUGUUUUUGUUUUUUCCGUUUGUUAUCCCCUUACUGAGCGGCCUCUACCCGGUGGCUGUGAUUAAAUGUCCCAAGCCAACAGAGGAUUGAGCAUCA
# B17: chr7:5620113:5620210:-|3pUTR|ENSG00000011275|msi1_unk|total|mutant (ssRNA)
# RNA: GGGAGUUCUACAGUCCGACGAUCGUCACUUUGUAUAAAAACAAGAAACGAUCCGUUCAUUAAACUUUUUCUUUACCUUCUGGCCGUAAAAACCGAUAAAAUAAUUCCGUUUCAACUACUGUGUGUAAAAAGCCUGUAUCAUAUCAACAGAGGAUUGAGCAUCA
# B18: chr1:17407970:17408071:-|3pUTR|ENSG00000179051|msi1|total|mutant (ssRNA)
# RNA: GGGAGUUCUACAGUCCGACGAUCGGGUACCGUUCUGCUGACCCAGCUCCCUUCCGUCACGUUUGCUUGGCUCUGGUACCAAACCGUUGGGAUUACCGAAGAGUCCCCUUCCUUGCGUGUCAGCACGGAUGCUGUGACUGCCACCAACAGAGGAUUGAGCAUCA
# B19: ENSG00000198589:be:win_9701|3pUTR|ENSG00000198589|bound_else_gene|NA|bound_elsewhere_windowed (ssRNA)
# RNA: GGGAGUUCUACAGUCCGACGAUCCAAGGAUUUGGAAUGAACAAUUCAGUUUGACAGAAAAAGCUGAAUAAAAUGGCAUCUGUAAUUGAAUUGUUGGAAAUGCCUUUUUUGCUCCUAAAUUUUAAACAUCAUUAAUAAAAUAAUCAACAGAGGAUUGAGCAUCA
# B20: ENSG00000077232:stop:overlap|stop_codon|ENSG00000077232|stop_codon|NA|stop_codon (ssRNA)
# RNA: GGGAGUUCUACAGUCCGACGAUCUGUUGGUUAAUAUCUUUCAUCAGUUGUGGAAACCUGUCAGCUGGAUGGUCUUGUUAAUGUAGGAUGGAUGGACUGUGCCACCCAGGAUAACCUUUGUAAAAGCUUAGAUAUUACAACAAGCAACAGAGGAUUGAGCAUCA
# B21: chr13:52461607:52461862:+|CDS|ENSG00000136108|unk|total|mutant (ssRNA)
# RNA: GGGAGUUCUACAGUCCGACGAUCGUUACAAUCCGGAAAGGGCCUCAUGAAAAAGAACUAUUACAAUCAAAAACAGCUUUAUCCCGUGUCAAAACCAGUUCUUCUCAAGGUAUAAUAAGAAAUAAGACUCUAUCAAGAUCCAUACAACAGAGGAUUGAGCAUCA
# B22: chr1:85267750:85267865:-|CDS|ENSG00000142867|unk|FALSE|unique (ssRNA)
# RNA: GGGAGUUCUACAGUCCGACGAUCAGGAGAAUCCAGCACGACGCCCUUUUUUUCUACUAAUUCUUCUCUGAAUUUGCCUGUUCUAGAAGUAGGCAGAACUGAAAAUACCAUCUUCUCUUCAACUACACUUCCCAGACCUGGGGACAACAGAGGAUUGAGCAUCA
# Molecular target: T1, UNK ZnF1-6 (called full-length) (human, UniProt Q9C0B0 30-357)
# T1 sequence: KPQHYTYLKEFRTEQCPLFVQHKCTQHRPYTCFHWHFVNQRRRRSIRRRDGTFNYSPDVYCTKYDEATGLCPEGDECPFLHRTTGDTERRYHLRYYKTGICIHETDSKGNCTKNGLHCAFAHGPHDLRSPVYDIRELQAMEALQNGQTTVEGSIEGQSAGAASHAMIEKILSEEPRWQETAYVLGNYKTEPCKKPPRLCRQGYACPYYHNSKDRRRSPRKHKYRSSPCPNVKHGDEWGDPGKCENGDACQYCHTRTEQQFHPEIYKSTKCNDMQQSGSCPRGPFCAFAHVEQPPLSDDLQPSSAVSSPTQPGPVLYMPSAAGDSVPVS
# Test: nsRBNS (natural sequence RNA bind-n-seq); RBNS binding buffer (assumed for nsRBNS): 25 mM Tris pH 7.5, 150 mM KCl, 3 mM MgCl2, 0.01% Triton X-100, 500 ug/ml BSA, 20 U/ml SUPERase-In, 4 C; UNK is unkempt and MSI1 is Musashi-1; names of the RNAs are library labels; protein concentration not given here; high values mean tight binding
row,Binder,binding signal
1,B1,0.706 enrichment R
2,B2,0.581 enrichment R
3,B3,0.474 enrichment R
4,B4,1.1 enrichment R
5,B5,0.485 enrichment R
6,B6,0.853 enrichment R
7,B7,0.52 enrichment R
8,B8,1.32 enrichment R
9,B9,0.59 enrichment R
10,B10,1.21 enrichment R
11,B11,0.911 enrichment R
12,B12,0.29 enrichment R
13,B13,0.971 enrichment R
14,B14,0.429 enrichment R
15,B15,0.616 enrichment R
16,B16,0.652 enrichment R
17,B17,0.387 enrichment R
18,B18,0.631 enrichment R
19,B19,0.976 enrichment R
20,B20,1.47 enrichment R
21,B21,0.555 enrichment R
22,B22,0.504 enrichment R
